According to the supplement of paper PMC11417369:
This is one part of the list.

system: PfHDP1 homeodomain (GST-tagged); assay: gcPBM binding intensity (ln(normalized median fluorescence intensity)); higher = stronger DNA binding
Summary of the method: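 Binding intensity is defined as the maximum Masliner-normalised natural-log median intensity across replicate spots for either probe orientation. It was measured on an Agilent 4 × 180k array of primer-extended double-stranded 36-bp intergenic genomic probes and negative controls, to which GST-tagged P. falciparum DNA-binding domains made in E. coli were applied for 1 h in 1× PBS with 1% milk, 0.2 mg/ml BSA, 0.5% salmon testes DNA and 0.03% Triton X-100. Detection was by Alexa488 anti-GST antibody and scanning at 488 nm.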

Sequence | gcPBM binding intensity (ln)
ATTATGTTATATACACGTACGTGTGCTTTATAATTA [XGTACX_site2728] | 7.1
TAATAAATAGGACACACACACATATATATATATTAT [CACACA_site4891] | 6.91
ATTCCACCTTAAAACTGTACTTTCTCAATCTTTTAT [XGTACX_site796] | 6.55
CATATATAAATATGTATGCACTTTAACAAAATGTAT | 7.25
ATATTTATTTATATGTGTACTTATGTTTATATAAAA [XGTACX_site4250] | 6.51
AGTGTTAAAAATGAGGGTACATATAAAATACAGTTC [XGTACX_site457] | 6.42
ACAGGATTGGTTCAAACACACATATTATATGACTAT [CACACA_site4536] | 6.45
TAATCATTTTAGCTTACACACAAAATTTGGTTATAA [CACACA_site5604] | 6.29
TTTCTTTTTTTTTTTTGTACATATTTTAATTATTTT [XGTACX_site8676] | 6.95
TATTATATATATAACTGTACGTTTATAATATAAAAA [XGTACX_site3778] | 6.28
TATTTTAATTAATATACACACGCTTATATATATATA [CACACA_site7909] | 8.8
TACAAACTATGATGCACACATATATATCTGTATCCA [CACACA_site4809] | 9.63
AAGCTTTGGTGTTATGCATGCAATTAAACTATTAGT [TGCATGCA_site277] | 6.91
AATAATATATAATAATGTACAAAAAAAAAAAAAAAA [XGTACX_site4158] | 6.51
TTTTATTTTTTAGTAGTACACACTTTTTGTACCTTT [CACACA_site599] | 6.6
AGTTTTATATAAGCTTGTACTTAATATTATTAAGTA [XGTACX_site5919] | 6.59
CAAACAAACGGACACACACACACACCCAAAAATGAT [CACACA_site5363] | 6.77
AAAAAAAAAAATCGCTGTACTTCTAAAGGTGTGTTA [XGTACX_site843] | 6.11
TTTGATAAATTATACACACACAATATATATAAAATA [CACACA_site2023] | 6.66
ACGGACTTAAAATACACACACACCAAAAAAAAAAAA [CACACA_site7304] | 6.59
ATATATACTTATATTTGTACACAAAGGTATCTCTAG [XGTACX_site3805] | 6.4
GGAATAATAAAATTATGTACATAAGAATCATATACT [XGTACX_site6810] | 6.45
AAATAATACCAAATGTGTACTTATTTCACTAATAGA [XGTACX_site7571] | 6.29

Sequence | gcPBM binding intensity (ln)
AAAAGATAAAAAGAAGTGCATAATAGGAACAAATAT [GTGCAC_site9717] | 9.22
TATATGTGGGTTTTTTTTATGTGTTTTTCTTTTTTT [CACACA_negctrl_site936] | 7.04
CATTTCATTAATAAATGTACTTGTGAAGAGAAAAAG [XGTACX_site3115] | 6.54
ACAAAATTTACAAAATGTACAAAATATACAAAATGT [XGTACX_site3543] | 6.22
ATTTATATTTAATATACACACATTATTTTTTTATAT [CACACA_site574] | 6.86
ATCACATTCCACGGTACACACTAAAAGAAAAATCAG [CACACA_site5907] | 6.61
AGAGTACAAGTAAATACACACATATATATGAAAATA [CACACA_site1079] | 6.98
TTTACATTTTAGGAAGTGCATATAATAAATACTATC | 8.8
CACATATATACACATACACACACACCCATACACCCA [CACACA_site8505] | 7.22
TACATAAATACATACACACACATATAACCAATGTAG [CACACA_site5243] | 6.85
TATAATATGACAAGAAGTACATATATTTACATATAT [XGTACX_site1571] | 6.19
ATATAATATTTTAGAGTGCACCGATAACAATAAATA [GTGCAC_site9754] | 9.99
TTACAAAAAAAAAGGCGCGGATGGGGGCAATAGCAA [CACACA_negctrl_site238] | 6.28
TTTATATAGAAACACACACACAAAAAAAAAAAAAAA [CACACA_site2646] | 6.54
CAAAAAAAAAAAAAAACACACATTAAATTATAAAGA [CACACA_site2613] | 6.18
TAATGTTTCAAAATTTAATATACTACAAATATTATA [TGCATGCA_negctrl_site336] | 5.97
ATGAACATCCAATATACACACATATATATTTATATT [CACACA_site829] | 6.87
TGTTATTCTGCATATACACACAAATAACAATTTAAA [CACACA_site6943] | 6.92
TAAGATATAAAAAATGTGCACATTAAAGTATTAATT | 10.5
TCTTATGATGGAATGTTAAATATTACATTTTGTTTA [TGCATGCA_negctrl_site503] | 6.03
TACTTTATTTTTTATACACACACAATATGTATATAT [CACACA_site9184] | 7.12
GTATTTCTTTAATATACACACACCAAAACAAAAAAA [CACACA_site579] | 6.98
